The record followed here is article PMC9911399, “Two distinct binding modes provide the RNA-binding protein RbFox with extraordinary sequence specificity”.

T1: RBFOX1 RRM (Homo sapiens, UniProt Q9NWB1 109-208)
T1 sequence: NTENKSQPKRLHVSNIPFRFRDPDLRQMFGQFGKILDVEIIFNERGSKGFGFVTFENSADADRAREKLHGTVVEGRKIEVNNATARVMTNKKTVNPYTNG

B1: AAAGUUG (DNA:RNA)
RNA: GGGAGACCGGAAUUCAGAUUGUCCAAAGUUGUUAAAUCCCGUCGUAGCCACCA
DNA 1: CAATCTGAATTCCGGTCTCCC
DNA 2: TGGTGGCTACGACGGGATT
B2: GAAAGAU (DNA:RNA)
RNA: B1 RNA with A25G, G28A, U29G, U30A, G31U
DNA 1: CAATCTGAATTCCGGTCTCCC
DNA 2: TGGTGGCTACGACGGGATT
B3: UUCCUAU (DNA:RNA)
RNA: B1 RNA with A25U, A26U, A27C, G28C, U30A, G31U
DNA 1: CAATCTGAATTCCGGTCTCCC
DNA 2: TGGTGGCTACGACGGGATT
B4: UGGCGCC (DNA:RNA)
RNA: GGGAGACCGGAAUUCAGAUUGUCCUGGCGCCUUAAAUCCCGUCGUAGCCACCA
DNA 1: CAATCTGAATTCCGGTCTCCC
DNA 2: TGGTGGCTACGACGGGATT
B5: UUCGUCA (DNA:RNA)
RNA: B1 RNA with A25U, A26U, A27C, U30C, G31A
DNA 1: CAATCTGAATTCCGGTCTCCC
DNA 2: TGGTGGCTACGACGGGATT
B6: CUAGAUA (DNA:RNA)
RNA: B1 RNA with A25C, A26U, U29A, G31A
DNA 1: CAATCTGAATTCCGGTCTCCC
DNA 2: TGGTGGCTACGACGGGATT
B7: GCUCCAC (DNA:RNA)
RNA: B4 RNA with U25G, G26C, G27U, G29C, C30A
DNA 1: CAATCTGAATTCCGGTCTCCC
DNA 2: TGGTGGCTACGACGGGATT
B8: UGGUGUG (DNA:RNA)
RNA: B4 RNA with C28U, C30U, C31G
DNA 1: CAATCTGAATTCCGGTCTCCC
DNA 2: TGGTGGCTACGACGGGATT
B9: GCUGUAU (DNA:RNA)
RNA: B1 RNA with A25G, A26C, A27U, U30A, G31U
DNA 1: CAATCTGAATTCCGGTCTCCC
DNA 2: TGGTGGCTACGACGGGATT

Numbering of substitutions follows the chain as printed; changes in the protein carry UniProt numbers. This is one part of the list.

For the experiment, the target named is T1, RBFOX1 RRM. Nature of the experiment: EMSA; HiTS-Eq, 1 nM pool, 10 min; buffer printed only for the single-RNA assays: 10 mM Tris pH 7.5, 150 mM NaCl, 3.4 mM EDTA, 0.001% NP-40, 30 C. Particulars: tags: His6 N-terminal (pET28a); label: 5' 32P. An outline of the steps:
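Purified wild-type or mutant RbFox RRM at increasing concentrations was equilibrated with 1 nM of 5′-radiolabelled RNA carrying 7 randomized nucleotides for 10 min in 50 µL. Unbound RNA was separated by 8% native PAGE and sequenced. Relative association constants came from read-count changes of each RNA species compared with the control reaction, normalised to the cognate motif.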
Turning to B1, the binding signal was 0.0113 KA relative to UGCAUGU. In the case of B2, the binding signal is 0.0107 KA relative to UGCAUGU.

In the case of B3, the binding signal is 0.00415 KA relative to UGCAUGU. Turning to B4, the binding signal is 0.019 KA relative to UGCAUGU. For the molecule B5, the binding signal is 0.00715 KA relative to UGCAUGU. As for B6, the binding signal is 0.00632 KA relative to UGCAUGU. On to B7, for which the binding signal is 0.00389 KA relative to UGCAUGU. Regarding B8, the binding signal is 0.029 KA relative to UGCAUGU. In the case of B9, the binding signal was 0.013 KA relative to UGCAUGU.
